# Read counts are not given, so values of variants with three or more changes are uncertain.
# B1: LINE1-mini (parent)
# chain: GGCAGAGCUCAACACAGCGUGGCAAAGUGGCUGUGGCUAGACUGCC
# Variants of: B1
# Assay: self-cleavage, relative activity (ratio to wild type); higher = more cleavage; in vitro, sequencing; the parent is a self-cleaving ribozyme
row,Variant,self-cleavage
1,GGCAGAGCAGAACACAGCGUGGCAAAGUGGCUGUGGAUAGAAUGCC [U9A C10G C37A C42A],0.01
2,GGCAGAGCACAACACAGCGUGGCAAAGUGGCUGUGGUUAGACUGUC [U9A C37U C45U],0.1
3,GGCAGAGCACAACACAGCGUGGAAAAGUCGUUAUGGCUAUACUGCC [U9A C23A G29C C31U G33A G40U],0.04
4,GGCAGAGCACAACACAGCGUGGCUAAGUAGCUGUGGCUAGGCUACC [U9A A24U G29A A41G G44A],0
5,GGCAGAGCACAAAACAGCGUGGCAAAGUGGCUGUGGCUCGACUGCC [U9A C13A A39C],0.17
6,GGCAGAGUUCAACACAGCGUGGCAAAGUGGCAGUGGCUAGAUUGCC [C8U U32A C42U],0.18
7,GGCAGAGCACAACAAAGCGUUGCAAAGUGGCUGUGGCUUGACUGAC [U9A C15A G21U A39U C45A],0.04
8,GGCAGAGCACAAAACAGCGUCGCAAAGUGGCUGUGGCUAGACUGCC [U9A C13A G21C],0.06
9,GGCAGAGCACAACACUGCGUGGCAAGGUGGCUGUGCCUAGACUGCC [U9A A16U A26G G36C],0.03
10,GGCAGAGCACAACAUAUCGUAGCCAAGUUGCUGUGGCUAGACUUCC [U9A C15U G17U G21A A24C G29U G44U],0.08
11,GGCAGAGCACAACCCAGCGUGGCAAAGUGGCUGUGGAUAGACUGCC [U9A A14C C37A],0.15
12,GGCAGAGCACAACACAUAGUAGCAAAGUGAUUGUGGCUAGACUGCC [U9A G17U C18A G21A G30A C31U],0.01
13,GGCAGAGUUCAACACAGCGUGGCAAAGUGGCUGGGGCUACACUGCC [C8U U34G G40C],0.08
14,GGCAGAGUUCAACACAGCGUGGCAAAGCCAUUGUGGCUAGACUUUC [C8U U28C G29C G30A C31U G44U C45U],0.11
15,GGCAGAGCACAACAUGGAGUGGCAAAGUAGCAGUGGCUAGACUGCC [U9A C15U A16G C18A G29A U32A],0.04
16,GGCAGAGCACAACACAGGGUGGCAAAGUGGCUGAGGCUAGACCGCC [U9A C18G U34A U43C],0.08
17,GGCAGAGCACAAGACAGCGUGGCAAAGUGGCGGUGGUUAGACUGGC [U9A C13G U32G C37U C45G],0.12
18,GGCAGAGCACCACACAGCGUGGCAUAGUGGCUGUGGCUAGACUGCC [U9A A11C A25U],0.01
19,GGCAGAGCACAACUCAGCGUGGCAAAGUGGCUCUGGAGAUACUGCC [U9A A14U G33C C37A U38G G40U],0.1

row,Variant,self-cleavage
1,GGCAGAGCACAACACAGCGUGGAAAAGUGGUUGAGGCUAGACUCCC [U9A C23A C31U U34A G44C],0.03
2,GGCAGAGCACAACAAAAAGUGGCAAAGUGGCUGUGGCUAGACUGCC [U9A C15A G17A C18A],0.04
3,GGCAGAGCACAACAUAGCGUGGCAAACUGGCUGUGGCUAGACUGCC [U9A C15U G27C],0.23
4,GGCAGAGCACAACUCAGCGUGGCAAGGUGACUGUGGCUAGACUGCC [U9A A14U A26G G30A],0.05
5,GGCAGAGCAGAACACAGCGUGGCAAACUGGCUGUGGCUAGACUGCC [U9A C10G G27C],0.04
6,GGCAGAGCACAACAAAGCGUCGCAAAGUGGUUGUGGCUAUACUGCC [U9A C15A G21C C31U G40U],0.01
7,GGCAGAGUUCAACACAGCGUGGCAAAGCGGCUGUGGGUAGACUGCC [C8U U28C C37G],0.04
8,GGCAGAGCACAACUCAGCGAGGCAAAGUGGCUGUGGCUAGACUGCC [U9A A14U U20A],0.29
9,GGCAGAGCACAACACAGAGUGGCCAAGCGGCUGUGGCUAGACUCCC [U9A C18A A24C U28C G44C],0.12
10,GGCAGAGCACAACGCAGCGUGGCAAAGUGGCUGUGGCUAGACUUCC [U9A A14G G44U],0.05
11,GGCAGAGUUCAACACAGCGUGGCAAAGUGGCGGCGACUAGACUGCC [C8U U32G U34C G36A],0.01
12,GGCAGAGCACAACGCAGCGUGACAAAGUGGCUGUGGCUAUACUGCC [U9A A14G G22A G40U],0.05
13,GGCAGAGCACAACAUAGCGUGGCAAAGUGGCUGGGGCUAGACUGCA [U9A C15U U34G C46A],0.07
14,GGCAGAGCACAAAACGGCGUGGUAAAGUGGCUGUGACUAGACUGCC [U9A C13A A16G C23U G36A],0.18
15,GGCAGAGUUCAACACAGCGUGGCAAAGUGGCUGUGGCCAGAAUGCC [C8U U38C C42A],0.08
16,GGCAGAGCACUACACUGCGUGGCAAAGUGGCUGUGGCUAGACUGCC [U9A A11U A16U],0.03
17,GGCAGAGCACAACACAGCGUGGCAAAGUGGCUGUGGCUAGCCAGCC [U9A A41C U43A],0.03
18,GGCAGAGCACAACACAGCGUGGGAAAGUGGGUGUGGGUAGACAGCC [U9A C23G C31G C37G U43A],0.09
19,GGCAGAGCACAACACAGCGUGGCCUAGUGGCAGCGGCUAGAUUGCC [U9A A24C A25U U32A U34C C42U],0.09

row,Variant,self-cleavage
1,GGCAGAGCACCACACAGCGUGGCAAAGUGGCUGUGGAUAGACUGCC [U9A A11C C37A],0.06
2,GGCAGAGCACAACACAGCGUGGUAAAGUGGCUGUGACUAGACUAUC [U9A C23U G36A G44A C45U],0.12
3,GGCAGAGCACAACACAGUGUGGCAAAGUGGCUGUGGCUACGUUGCC [U9A C18U G40C A41G C42U],0.28
4,GGCAGAGCACAACACAUCGCGGCAAUGUGGCUGUGGCUAGACCGCC [U9A G17U U20C A26U U43C],0.07
5,GGCAGAGCACAUCACAGCGUGGCAGAGUGGCAGUGGCUAGACUGCC [U9A A12U A25G U32A],0.04
6,GGCAGAGCACAACACAGCGUGGCAACUUUGCUGUGGCUAGACUGCC [U9A A26C G27U G29U],0.12
7,GGCAGAGCACACCACAGCGUGGCAAAGAGGCUGUGGCUAGACUGCC [U9A A12C U28A],0.03
8,GGCAGAGUUCAACACAGCGUGGCAAAGUGGCUGCGGCUAGGCUGCC [C8U U34C A41G],0.07
9,GGCAGAGCACAACACAGCGUGGCUAAGUGGCUGUUGGUAGACUGCC [U9A A24U G35U C37G],0.14
10,GGCAGAGUUCAACACAGCGUGGCAAAGUGGCCUUGGCUAGACUGCC [C8U U32C G33U],0.04
11,GGCAGAGCAUAAGACAGCGUGGCAAAGUGCCUGUAGUUAGACUGCC [U9A C10U C13G G30C G35A C37U],0.02
12,GGCAGAGCACCACACAGCGUGGCUAAGUGCUUGGGGCUAGACUGCC [U9A A11C A24U G30C C31U U34G],0.01
13,GGCAGAGCACAACAUAGCGUGGCAAAGUGUCCGUGGCUACACUUCC [U9A C15U G30U U32C G40C G44U],0.51
14,GGCAGAGCACAACACAUCGUUGCAAAGUGGCUGUGGCUAGACUGCC [U9A G17U G21U],0.15
15,GGCAGAGCACAACACAGCGUGGCAAAGUGGGUGUGGUUAGACUGCC [U9A C31G C37U],0.02
16,GGCAGAGUUCAACACAGCGCGGCAAAGUGGCUGUGGCAAGACUGCC [C8U U20C U38A],0.03
17,GGCAGAGCACAACACAGCGUGGCAUAGUAGCUGUGGCUAGACUGGC [U9A A25U G29A C45G],0.04
18,GGCAGAGCACAACACAUGGUGGCAAAGUGGCUGUGGCUAGACUGCC [U9A G17U C18G],0.02
